Reference: the supplement of paper PMC4967469
Lines with a small IC50 respond at low doses; where the fit passes the top or lowest dose, that dose stands as a limit. AUC is the area under the same curve over the 256-fold range up to the top dose, as a fraction: 1 means no effect, lower means more sensitive. For some of these results: Any top dose called inferred is not printed in the source and was worked back from the curve model.

Key:
Assay in all cases: Viability of human cancer cell lines after 72 h of drug (GDSC screen)
[1] = compound: O=C(c1ccc(C(=O)N2CCC(N3CCCC3)CC2)c(Nc2ccccc2)c1)N1CCC(N2CCCC2)CC1 [UNC1215]; conditions: top dose 1 µM; top dose inferred
Description: (§1)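 Human cancer cell lines in 384-well plates, medium with 10% serum, drug for 72 h over a 256-fold dose range (nine 2-fold or five 4-fold steps up to the top dose). Adherent lines were fixed and stained with the nucleic acid dye Syto60, suspension lines read with resazurin; signal relative to control wells, capped at 0 and 100%. One two-parameter sigmoid per drug and line, fitted in a mixed model over all curves with the slope shared within a line.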

[2] = compound: CCc1cc(-c2n[nH]c(C)c2-c2ccc3c(c2)OCCO3)c(O)cc1O [CCT018159]; conditions: top dose 10 µM; top dose inferred
Description: as §1

[3] = compound: COc1cccc2cc(-c3nc([C@H]4CC[C@H](C(=O)O)CC4)n4ncnc(N)c34)[nH]c12 [OSI-027]; conditions: top dose 20 µM
Description: as §1

[4] = compound: COC(=O)CNC(=O)C(=O)OC [Dimethyloxalylglycine]; conditions: top dose 4000 µM; top dose inferred
Description: as §1

[5] = compound: CS(=O)(=O)c1ccc(C(=O)Nc2ccc(Cl)c(-c3ccccn3)c2)c(Cl)c1 [Vismodegib]; conditions: top dose 10 µM; top dose inferred
Description: as §1

[6] = compound: COc1cccc2c1C(=O)c1c(O)c3c(c(O)c1C2=O)C[C@@](O)(C(=O)CO)C[C@@H]3O[C@H]1C[C@H](N)[C@H](O)[C@H](C)O1 [Doxorubicin]; conditions: top dose 1.024 µM
Description: as §1

[7] = compound: C=CCNC1=C2C[C@@H](C)C[C@H](OC)[C@H](O)[C@@H](C)/C=C(\C)[C@H](OC(N)=O)[C@@H](OC)/C=C\C=C(/C)C(=O)NC(=CC1=O)C2=O [17-AAG]; conditions: top dose 1 µM
Description: as §1

[8] = compound: Cc1cnc(Nc2ccc(OCCN3CCCC3)cc2)nc1Nc1cccc(S(=O)(=O)NC(C)(C)C)c1 [TG101348]; conditions: top dose 10.24 µM
Description: as §1

[9] = compound: Cc1cnc(Nc2ccc(F)cc2Cl)nc1-c1c[nH]c(C(=O)N[C@H](CO)c2cccc(Cl)c2)c1 [VX-11e]; conditions: top dose 5.12 µM; top dose inferred
Description: as §1

[10] = compound: CN(C)Cc1cccc(N=C(c2ccccc2)c2c(O)[nH]c3cc(C(=O)N(C)C)ccc23)c1 [BIX02189]; conditions: top dose 20 µM; top dose inferred
Description: as §1

[11] = compound: C=CC(=O)Nc1cc(-n2c(=O)ccc3cnc4ccc(-c5ccc(NS(C)(=O)=O)cc5)cc4c32)ccc1C [BMX-IN-1 (QL-XII-61)]; conditions: top dose 10 µM; top dose inferred
Description: as §1

Row | Cell Line | AUC [1] | IC50 [1] [nM] | AUC [2] | IC50 [2] [nM] | AUC [3] | IC50 [3] [nM] | AUC [4] | IC50 [4] [nM] | AUC [5] | IC50 [5] [nM] | AUC [6] | IC50 [6] [nM] | AUC [7] | IC50 [7] [nM] | AUC [8] | IC50 [8] [nM] | AUC [9] | IC50 [9] [nM] | AUC [10] | IC50 [10] [nM] | AUC [11] | IC50 [11] [nM]
1 | D-263MG (glioma, adherent) | 0.969 | > 1000 | 0.936 | > 10000 | 0.974 | > 20000 | 0.611 | 541000 | 0.962 | > 10000 | 0.704 | 275 | 0.443 | 42.1 | 0.978 | > 10200 | 0.982 | > 5120 | 0.974 | > 20000 | 0.938 | > 10000
2 | CAL-12T (non-small cell lung carcinoma, adherent) | 0.982 | > 1000 | 0.805 | 5780 | 0.327 | 387 | 0.282 | 55500 | 0.972 | > 10000 | 0.347 | 22.8 | 0.775 | 446 | 0.813 | 6390 | 0.869 | > 5120 | 0.906 | > 20000 | 0.968 | > 10000
3 | EoL-1-cell (haematopoietic neoplasm, suspension) | 0.972 | > 1000 | 0.846 | 6070 | 0.501 | 1260 | 0.398 | 136000 | 0.89 | 9120 | 0.383 | 31.8 | 0.842 | 585 | 0.523 | 732 | 0.758 | 1590 | 0.252 | 269 | 0.642 | 1460
4 | MC-CAR (haematopoietic neoplasm, suspension) | 0.982 | > 1000 | 0.84 | 5830 | 0.153 | 126 | 0.614 | 495000 | 0.989 | > 10000 | 0.452 | 48 | 0.937 | > 1000 | 0.471 | 538 | 0.914 | > 5120 | 0.848 | 12500 | 0.792 | 4010
